Experimental data reported in PubChem BioAssay AID686978 (National Center for Advancing Translational Sciences (NCATS), 2013).
Values joined by “and” are separate entries in the source; they are usually repeats but may differ in a detail not shown here. Identical values can stand only once. Among all 420,000 compounds or so, about 64,000 (15%) were called active. This list was built around the results that the source calls inconclusive (neither active nor inactive); the mix of calls is not that of the screen. Calls come from the whole dose curve; as a rule, active = well fitted inhibition curve with a large enough effect; inconclusive = small, poorly fitted or top-dose-only effect; inactive = flat fitted curve, though single readings scatter. No potency is given beside an inconclusive call; the fits are too rough.
Potency is the fitted concentration of half-maximal effect; tags give direction and shape of the fitted curve.

Experiment: qHTS for Inhibitors of human tyrosyl-DNA phosphodiesterase 1 (TDP1): qHTS in cells in absence of CPT; note: nearly all actives have a fitted effect of over 55% in size
Details: DT40 Tdp1-/- hTDP1 cells, no CPT, ATP luminescence, 48 h; series mostly up to 46.2 µM
Summary of the method: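 Growth kinetics read by CellTiter-Glo luminescence after ≥48 hr at 37 °C. Cells: DT40 Tdp1-/- stably carrying human TDP1, 400 per well, compound exposure in the absence of CPT (DMSO vehicle).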
With `O=C(COc1ccccc1)NCCc1csc(-c2ccc(Cl)cc2)n1` the Potency was inconclusive [inhibitor, single point].
In the case of `O=c1c2ccccc2c(=O)n(-c2ccccc2)n1-c1ccccc1`, the Potency is reported as inconclusive [inhibitor, partial curve].
In the case of `COc1ccc(CCNC(=O)CSc2nnc(-c3ccc(F)cc3)c3ccccc23)cc1OC`, the Potency is reported as inconclusive [inhibitor, single point].
In the case of `Cc1ccsc1C(=O)OCC(=O)NCc1ccccc1`, the Potency is reported as “inactive”.
With `Cc1ccc(S(=O)(=O)Nc2ccccc2/C=N/c2nc3ccccc3n2C)cc1` the Potency was inconclusive [inhibitor, single point].
In the case of `O=C(COC(=O)Cc1cccc(C(F)(F)F)c1)Nc1cccc2ccccc12`, the Potency is reported as “inactive”.
With `COc1ccc2c(C)cc(SCC(=O)NC3CCCC3)nc2c1` the Potency was inconclusive [inhibitor, single point].
In the case of `Cc1ccccc1Nc1nc(N)nc(CCl)n1`, the Potency is reported as active: 23.1 µM.
For `CCOC(=O)C1(Cc2ccccc2)CCN(C2Cc3ccccc3C2)CC1`, the Potency was inconclusive [inhibitor, single point].
For `O=C(NC(=S)Nc1ccc(Cl)cc1Cl)C1CC1`, the Potency was inconclusive [inhibitor, single point].
For `O=S(=O)(NCC(c1cccs1)S(=O)(=O)c1ccccc1)c1ccc(F)cc1` (centres undefined), the Potency was active: 2.31 µM.
In the case of `O=C(CN1CCN(Cc2ccccc2)CC1)Nc1cccc(Cl)c1`, the Potency is reported as inconclusive [inhibitor, single point].
For `COc1ccc(C(O)c2ncc(-c3cccc(OCc4ccccc4)c3)[nH]2)cc1F` (centres undefined), the Potency was inconclusive [inhibitor, single point].
For `O=C(NC1CCCc2ccccc21)c1ccc(F)cc1F` (centres undefined), the Potency was inconclusive [inhibitor, full curve, poor fit].
For `CNC(=O)Nc1cc(C(C)(C)C)no1`, the Potency was inconclusive [inhibitor, single point].
In the case of `Cc1cc(=O)n2c(ccc3ccccc32)c1C#N`, the Potency is reported as “inactive”.
In the case of `CCOC(=O)Cc1csc(NC(=O)c2ccc3ccccc3n2)n1`, the Potency is reported as active: 18.4 µM.
With `Cc1ccccc1-c1nn2c(=O)cc(CN3CCN(C(=O)/C=C/c4ccccc4)CC3)nc2s1` the Potency was inconclusive [inhibitor, partial curve, poor fit].
With `COC(C(=O)Nc1ccc(S(=O)(=O)Nc2ccc(C)c(C)c2)cc1)c1ccccc1` (centres undefined) the Potency was active: 14.6 µM.
In the case of `CC(=O)N1c2ccccc2C(C)(c2ccccc2)CC1(C)C` (centres undefined), the Potency is reported as inconclusive [inhibitor, single point].
With `COc1ccc(CNC(=O)C(=O)NCC2OCCN2S(=O)(=O)c2ccc3c(c2)OCCO3)cc1` (centres undefined) the Potency was inconclusive [inhibitor, single point].
With `CCc1ccc(NC(=O)Cn2c(=O)n(CCC(=O)N3CCc4ccccc4C3)c(=O)c3ccccc32)cc1` the Potency was “inactive”.
For `Cc1ccc(C2CC2C(=O)NN)cc1` (centres undefined), the Potency was “inactive”.
In the case of `O=C(CNC(=O)c1ccco1)OCC(=O)c1ccc([N+](=O)[O-])cc1`, the Potency is reported as inconclusive [inhibitor, single point].
With `O=C(Nc1nccs1)c1cc(-c2ccccc2)nn1-c1ccccc1` the Potency was inconclusive [inhibitor, single point].
In the case of `CSCCC(NC(=O)c1ccc(Cl)cc1)C(=O)OCC(=O)Nc1cc(Cl)ccc1C#N` (centres undefined), the Potency is reported as inconclusive [inhibitor, single point].
With `CCn1c2ccccc2c2nnc(SCC(=O)Nc3ccccc3OC)nc21` the Potency was “inactive”.
With `CCOc1ccccc1CNC(=O)c1cc(-c2ccc(Cl)s2)nc2ccccc12` the Potency was active: 13 µM.
For `COc1cc2[nH]c(=O)n(CCCCCC(=O)NCCc3c[nH]c4ccccc34)c(=O)c2cc1OC`, the Potency was inconclusive [inhibitor, partial curve].
For `COc1ccc(CNC(=O)Cn2nnc(-c3ccc(C(F)(F)F)cc3)n2)cc1`, the Potency was “inactive”.
With `COC(=O)[C@]12CCCCC=C1N(Cc1ccccc1)C(=O)[C@H](CC(=O)NCc1ccc(C)o1)C2` the Potency was inconclusive [inhibitor, partial curve].
In the case of `CN(Cc1ccccc1)C(=O)COC(=O)c1ccc(Cl)cc1N`, the Potency is reported as inconclusive [inhibitor, partial curve, poor fit].
For `CCOC(=O)c1ccc(N2C(=O)c3n[nH]c(C)c3C2c2cccc(Br)c2)cc1` (centres undefined), the Potency was inconclusive [inhibitor, single point].
In the case of `O=C(/C=N/O)Nc1ccccc1`, the Potency is reported as “inactive”.
For `CCOC(=O)C1(C)CCN1C(=O)c1cccc(OC(F)(F)F)c1` (centres undefined), the Potency was inconclusive [inhibitor, single point].
In the case of `CCCC(=O)NC(Nc1cccc(C(F)(F)F)c1)C(Cl)(Cl)Cl` (centres undefined), the Potency is reported as active: 20.6 µM.
For `CCC(=O)Nc1ccc(C(=O)NNC(=O)CCCCC(=O)NNC(=O)c2ccc(NC(=O)CC)cc2)cc1`, the Potency was “inactive”.
With `CCOC(=O)N(C)C[C@@H]1OCc2cnnn2CCCC(=O)N([C@H](C)CO)C[C@@H]1C` the Potency was “inactive”.
For `COc1cc2c(cc1O)CCN[C@]21CS[C@@H]2c3c(OC(C)=O)c(C)c4c(c3[C@H](COC1=O)N1[C@@H]2[C@H]2c3c(cc(C)c(OC)c3O)C[C@@H]([C@@H]1O)N2C)OCO4`, the Potency was active: 3.3 nM and active: 4.3 nM.
For `COc1ccc(C(=O)c2cn(Cc3ccccc3F)c3cc4c(cc3c2=O)OCO4)cc1`, the Potency was inconclusive [inhibitor, single point].
With `CC1CCN(S(=O)(=O)c2ccc3c(c2)oc(=O)n3CC(=O)NCc2ccc3c(c2)OCO3)CC1` the Potency was inconclusive [inhibitor, partial curve].
In the case of `COc1ccc(OC)c(Nc2nc(N)nc(-c3cc4ccccc4o3)n2)c1`, the Potency is reported as active: 18.4 µM.
For `CCN1CCCC1CNC(=O)Cn1cccc1C(=O)c1ccccc1C` (centres undefined), the Potency was “inactive”.
With `CC(=O)c1ccc(NC(=O)COc2ccccc2C(=O)Nc2ccc(C)cn2)cc1` the Potency was inconclusive [inhibitor, full curve, poor fit].
